Test results taken from PubChem BioAssay AID493208 (National Center for Advancing Translational Sciences (NCATS), 2011).
Hit rate of the full screen: of about 44,000 compounds, about 340 (0.77%) were called active. Roughly 5% stayed inconclusive and do not appear here. Calls come from the whole dose curve; as a rule, active = well fitted inhibition curve with a large enough effect; inconclusive = small, poorly fitted or top-dose-only effect; inactive = flat fitted curve, though single readings scatter. This is one part of the list.

Assay: Acumen qHTS Assay for Inhibitors of the mTORC1 Signaling Pathway in MEF (Tsc2-/-, p53-/-) Cells: Sytravon; note: nearly all actives have a fitted effect of over 50% in size
Conditions: phospho-rpS6 immunofluorescence/PI, 24 h; series mostly up to 38.3 µM; activity change, negative = inhibition: at the top concentration
Method in brief: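 Readout is phospho-S6 Alexa 488 signal normalized to PI per well, reported as % active cells with thresholds set from rapamycin (7.5 nM) and DMSO controls. Cells: Tsc2-/-, p53-/- MEFs, 24 hrs compound at 37 C; PI cell number serves as viability.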
Potency is the fitted concentration of half-maximal effect.

Structure (SMILES) | activity change, negative = inhibition | Potency
COc1cccc(CNC(=O)CCc2c(C)nn(-c3ccc(N4CCCC4)nn3)c2C)c1 | inactive: 0.352% | –
CC(CCc1ccccc1)NC(=O)CSc1n[nH]c(-c2ccccc2Cl)n1 (stereo unspecified) | inactive: -12.6% | –
COc1ccc(OC(=O)c2cn(-c3cccc(OC)c3)c(=O)c3ccccc23)cc1 | inactive: -1.49% | –
O=S(=O)(NCC(c1ccco1)S(=O)(=O)c1cccs1)c1ccccc1 (stereo unspecified) | inactive: -15.8% | –
Cc1ccc(OC(C)C(=O)N2CCN(CCc3ccccn3)CC2)cc1C (stereo unspecified) | inactive: -8.96% | –
Cc1cccc(OCC(=O)Nc2ccc3nc(SCc4ccccc4)sc3c2)c1 | inactive: -4.22% | –
Cc1nc2ccccc2n1CCc1nc2c3ccccc3nc(SCc3ccccc3F)n2n1 | inactive: 4.44% | –
CCc1ccc(CNC(=O)c2ccc(Cn3c(=O)c4cccn4c4cccnc43)cc2)cc1 | inactive: -3.84% | –
CCCc1nnc(NC(=O)CSc2nnc3c4ccccc4n(CC)c3n2)s1 | inactive: -1.46% | –
COCCn1c(C)cc(O)c(C(c2cccc(F)c2)N2CCN(c3ccccc3)CC2)c1=O (stereo unspecified) | inactive: -9.2% | –
CCc1cccc(C)c1NC(=O)c1cc(CN2CCCC2)on1 | inactive: 1.07% | –
CC(C)NC(=O)C1CCCN(S(=O)(=O)c2ccc3c(ccn3C)c2)C1 (stereo unspecified) | inactive: 4.64% | –
Cc1ccc(OCCCC(=O)Nc2sc3c(c2C(N)=O)CCC(C)C3)cc1 (stereo unspecified) | inactive: -4.2% | –
COc1ccc(N(CC(=O)N2CCN(c3cccc(Cl)c3)CC2)S(=O)(=O)c2c(C)noc2C)cc1 | inactive: -11.6% | –
CCOc1ccc(C(=O)N2CC(=O)Nc3ccc(F)cc3C2c2ccc(F)cc2)cc1 (stereo unspecified) | inactive: 1.73% | –
COc1ccc(-c2oc3ncn4nc(COc5ccc(Cl)cc5)nc4c3c2-c2ccc(OC)cc2)cc1 | inactive: 7.71% | –
CCc1nnc2c(Nc3cc(OC)c(Cl)cc3OC)nc3ccccc3n12 | inactive: -0.843% | –
O=C(Nc1ccc2oc(-c3cccc4c(Br)cccc34)nc2c1)c1cccc(Cl)c1 | inactive: -7.65% | –
CC(C)(C)C1CCc2c(sc(NC(=O)c3cc(-c4ccc(F)cc4)on3)c2C#N)C1 (stereo unspecified) | inactive: -17.2% | –
CCC(C(=O)NCCc1ccc(OC)c(OC)c1)n1nc(C)c2sc3ccccc3c2c1=O (stereo unspecified) | inactive: -6.44% | –
Cc1cc(C)cc(-n2ccn3cnnc3c2=O)c1 | inactive: -19.6% | –
Cc1ccc(OCC(=O)OCc2cc(=O)n3nc(C4CC4)sc3n2)cc1C | inactive: 0.104% | –
CCCN(c1ccccc1F)S(=O)(=O)c1cc(-c2cc(C)no2)ccc1C | inactive: -10.6% | –
CSc1cccc(Nc2cc(C(=O)NC3CCCCC3)c3ccccc3n2)c1 | inactive: -17.5% | –

Structure (SMILES) | activity change, negative = inhibition | Potency
CCc1ccc2occ(CC(=O)Nc3c(C(=O)c4ccc(F)cc4)oc4ccccc34)c2c1 | inactive: 0.683% | –
Cn1nc(-c2ccccc2)c(-c2ccccc2)c(C(=O)Nc2ccccc2C(N)=O)c1=O | inactive: -5.82% | –
CN(C)c1ccc(-c2nc3ccc(Cl)cn3c2Nc2ccc3c(c2)OCCO3)cc1 | inactive: 0.029% | –
CCCN(CCC)c1cc(C)nc2nc(-c3ccc(C(C)(C)C)cc3)nn12 | inactive: 2.63% | –
Cc1cc(C)cc(N2C(=O)CSC23C(=O)N(CC(N)=O)c2ccccc23)c1 (stereo unspecified) | inactive: 0.561% | –
CCOCCCNC(=O)Cn1ncc2c([nH]c3ccc(C)cc32)c1=O | inactive: 1.03% | –
Cc1ccc(C)c(N2CCN(C3(c4ccccc4)C(=O)c4ccccc4C3=O)CC2)c1 | inactive: 14.6% | –
COCCN(Cc1ccc(C)c(Br)c1)S(=O)(=O)c1ccc2[nH]c(=O)ccc2c1 | inactive: -0.181% | –
CCOC(=O)c1ccc(NC(=O)c2cc(=O)c3ccc(C)c(C)c3o2)cc1 | inactive: 2.89% | –
CC(=O)N1CCc2cc(Br)cc(S(=O)(=O)CCC(=O)N3CCN(c4cccc(C)c4C)CC3)c21 | inactive: -10.4% | –
CCc1ccccc1NC(=O)N1CCN(Cc2nc3ccc(C)cc3o2)CC1 | inactive: 0% | –
COCCn1c(C)cc(O)c(C(c2ccccc2)N2CCCCC2)c1=O (stereo unspecified) | inactive: -9.25% | –
CC(C)Cc1nn2c(=O)cc(COC(=O)c3cccc(NC(=O)c4ccccc4)c3)nc2s1 | inactive: 0% | –
COc1ccc(NC(=O)c2cc(C3CC3)nc3c2c(C)nn3-c2ccccc2)c(OC)c1 | inactive: 6.04% | –
CCCN(CCC)CCNC(=O)c1cc2c(=O)oc3ccc(C)cc3c2s1 | inactive: -1.66% | –
Cc1c(C(=O)Nc2cccc(C(F)(F)F)c2)sc2nc3n(c(=O)c12)CCC3 | inactive: 0.659% | –
Cc1cccc(Cn2cc3c(=O)n(CC(=O)Nc4cccc(C)c4C)nc-3c3cc(F)ccc32)c1 | inactive: -2.16% | –
Cc1cccc(N2CCN(C(=O)c3cc4ccc5cccnc5c4[nH]3)CC2)c1C | inactive: -16.6% | –
CCOCCCNC(=O)Cn1ncc2c([nH]c3ccccc32)c1=O | inactive: -2.64% | –
Clc1ccccc1CNCCCSc1nnnn1-c1ccccc1 | inactive: -6.17% | –
CCOc1ccc(/C=C/c2nc(C#N)c(NCc3ccc(OC)cc3)o2)cc1 | inactive: 0.45% | –
Cc1noc(C)c1S(=O)(=O)N(CC(=O)Nc1ccc(C(F)(F)F)cc1)c1ccc(C(C)C)cc1 | inactive: 0.194% | –
CCN(CC)S(=O)(=O)c1ccc2c(c1)N(CC(=O)Nc1cccc(C)c1C)C(=O)C1CCCN21 (stereo unspecified) | inactive: -5.76% | –
COC(=O)c1ccc(NC(=O)C(=O)NCCc2csc3nc(-c4ccccc4F)nn23)cc1 | inactive: 0% | –

Structure (SMILES) | activity change, negative = inhibition | Potency
O=C(NCc1ccc2c(c1)CCN2C(=O)c1ccc(F)cc1)c1c(F)cccc1F | inactive: -1.74% | –
COc1cccc(-c2noc(-c3cc4ccccc4oc3=O)n2)c1OC | inactive: -1.65% | –
CCOc1ccccc1NC(=O)CSc1cn(CC(=O)N2CCCCCC2)c2ccccc12 | inactive: 1.39% | –
COc1cc(OC)c(NC(=O)C(CC(C)C)N2Cc3ccccc3C2=O)cc1Cl (stereo unspecified) | inactive: 2.31% | –
Cc1ccc(NC(=O)CCN2C(=O)c3ccccc3Sc3ncccc32)cc1 | inactive: -11.7% | –
COc1ccc(C)cc1NC(=O)CSc1ncc2c(n1)-c1ccc(Cl)cc1N(Cc1ccccc1)S2(=O)=O | inactive: 2.67% | –
CC1=C(C(=O)Nc2ccccc2)C(c2ccc(F)cc2)n2nc(SCc3cc(C)ccc3C)nc2N1 (stereo unspecified) | inactive: 0.181% | –
Cc1ccc(-c2nonc2NC(=O)c2ccco2)cc1C | inactive: -7.32% | –
COc1cc(CNc2ccc3[nH]c(=O)[nH]c3c2)cc(Cl)c1OCc1ccccc1F | inactive: -14.4% | –
Cc1ccc(-c2nc3ccccc3[nH]2)cc1NC(=O)COc1cccc(C)c1C | inactive: -12.6% | –
Cc1oc(C)c2c(=O)cc(-c3ccc4c(c3)OCO4)cc(OC(=O)c3ccc(Cl)cc3)c12 | inactive: -8.7% | –
Cc1ccc(-c2nn(CC(=O)Nc3cccc(C(F)(F)F)c3)c(=O)c3ccccc23)cc1 | inactive: -3.92% | –
Cc1ccc(CNC(=O)c2ccc3c(c2)N(Cc2cccc(C)c2)C(=O)CS3)cc1 | inactive: -26.9% | –
Cc1cccc(C)c1NC(=O)CSCc1cnn(-c2ccccc2)c1-n1cccc1 | inactive: 2.22% | –
COc1ccccc1Cn1c(CNS(=O)(=O)c2cccc([N+](=O)[O-])c2)nc2cccnc21 | inactive: -4.63% | –
CCC(Sc1nc2ccccc2c2nc(CCc3c(C)n[nH]c3C)nn12)C(=O)Nc1ccccc1F (stereo unspecified) | inactive: 0.569% | –
COc1ccc(C)cc1NC(=O)CCn1nc(C)cc1C | inactive: 0% | –
CCN(CC)C(=O)C1=C(C)Nc2nc3ccccc3n2C1c1cccc(Cl)c1 (stereo unspecified) | inactive: -8.98% | –
COC(=O)c1ccc(NC(=O)CSc2n[nH]c(CC(C)C)n2)cc1 | inactive: 0.193% | –
COc1ccc(CNC(=O)c2cc3cccc(OC)c3oc2=O)cc1 | inactive: -8.78% | –
CCn1cc(C(=O)N2CCN(c3ccc(OC)cc3)CC2)c(=O)c2cc(S(=O)(=O)N(C)C3CCCCC3)ccc21 | inactive: -0.167% | –
COc1cccc(CNC(=O)c2nn(C)c3c2CS(=O)(=O)c2ccccc2-3)c1 | inactive: 2.82% | –
COc1ccc(NC(=O)CSC2=Nc3ccccc3C3=NC(CCC(=O)NCCc4ccccc4)C(=O)N23)c(OC)c1 (stereo unspecified) | inactive: -1.21% | –
O=C(NCc1ccco1)c1ccc2c(c1)N(Cc1ccccc1F)C(=O)c1ccccc1S2=O (stereo unspecified) | inactive: -7.85% | –

Structure (SMILES) | activity change, negative = inhibition | Potency
Cc1cccc(OC(=O)c2cc(-c3ccc(Cl)cc3)on2)c1C | inactive: -3.38% | –
COc1ccc(CNC(=O)c2cc(C)nc3c2c(C)nn3-c2cccc(Cl)c2C)cc1 | inactive: 3.96% | –
COc1cccc(NC(=O)C(CCSC)NC(=O)C2CCC(C)CC2)c1 (stereo unspecified) | inactive: -19.2% | –
CC(C)CN(CCCNC(=O)c1cn(C)c2ccc(S(=O)(=O)N(C)C3CCCCC3)cc2c1=O)CC(C)C | inactive: -0.162% | –
COc1ccc(C)cc1NC(=O)CC(=O)Nc1ccc2nc3n(c(=O)c2c1)CCCCC3 | inactive: -8.9% | –
CCOc1ccc(S(=O)(=O)N(C(=O)c2ccncc2)c2ccc3oc(C)c(C(=O)OC)c3c2)cc1 | – | active: 5.21 µM
CCOc1ccc(C2=CC(c3cc(Br)ccc3F)n3ncnc3N2)cc1Cl (stereo unspecified) | inactive: 0.46% | –
Cc1nn(CC(=O)Nc2cccc(C(F)(F)F)c2)c(=O)c2nn(-c3ccccc3)c(C)c12 | inactive: -17.8% | –
CC(C)CSc1oc(-c2ccco2)nc1S(=O)(=O)c1ccc(Br)cc1 | inactive: -20.4% | –
CCOc1ccc(-n2c(=O)c3c(C)c(C)sc3n(Cc3cc(=O)n4cc(Cl)ccc4n3)c2=O)cc1 | inactive: 0.29% | –
CN(C(=O)CSc1nc2ccccc2n1Cc1cccc(C(F)(F)F)c1)c1ccccc1 | inactive: 8.34% | –
O=C(COC(=O)c1cc(-c2ccccc2)nc2c(Cl)cccc12)c1ccc(F)cc1 | inactive: 0.0329% | –
Cc1ccc(CCNC(=O)c2cc(-c3ccc(Cl)cc3)n[nH]2)cc1 | inactive: 1.34% | –
Cc1ccc(Nc2cc(C(=O)NCc3cccs3)c3ccccc3n2)c(C)c1 | inactive: 3.76% | –
Cc1ccc(NC(=O)Cc2coc3c(C)c(C)ccc23)cc1Cl | inactive: -11.8% | –
Cc1ccc(NC(=O)c2ccc3[nH]c(C)cc(=O)c3c2)c(C)c1 | inactive: 1.37% | –
COc1ccc(Nc2ncc3c(n2)CCN(C(=O)OC(C)(C)C)C3)cc1 | inactive: -8.42% | –
COc1ccccc1CN1CCN(C2CCN(C(=O)NC(C)C)CC2)C(=O)C1=O | inactive: 0% | –
COc1cc2ccccc2cc1C(=O)Nc1ccc2oc(-c3ccccc3)nc2c1 | inactive: -10.1% | –
CCOc1ccccc1C(=O)N(Cc1cccs1)c1ccc(Cl)cc1 | inactive: -7.54% | –
Cc1cc(O)c(-c2ccnc3cc(-c4ccccc4)nn23)cc1Cl | inactive: -21.8% | –
Cc1ccccc1CNC(=O)CCC(=O)N1CC2CCCN2c2ccccc21 (stereo unspecified) | inactive: 4.37% | –
CC1CCN(S(=O)(=O)c2ccc3c(c2)N(CC(=O)N2CCN(c4ccccc4)CC2)C(=O)CO3)CC1 | inactive: -9.5% | –
COc1ccccc1C(=O)Nc1nc2nc(C)c(Cc3ccccc3)c(=O)n2[nH]1 | inactive: -6.63% | –
